This is an account of results in PubChem BioAssay (NCI).

A structure can be active in one record and inactive in another.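 Treatment: one concentration, 48 hours, 96-well format. Scoring: percent growth, with anything below 10 considered active.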 A number of entries come with more than one value. The other results are left out here. The source may hold further records. This drug was run again and again over the years, at its own concentration, as given; one value stands for one run. Additions like (4×) count equal records among those shown.

Test [1] has as its system A498 renal. Nature of the test: NCI-60 one-dose screen, 48 h (100 = growth as untreated, 0 = no growth, -100 = all killed). The conditions noted are these: 25 µM.
The subject of test [2] is CCRF-CEM leukemia. The description is as above. The conditions noted are these: 0.25 µM.

Turning to `COc1cccc2c1C(=O)c1c(O)c3c(c(O)c1C2=O)C[C@@](O)(C(=O)CO)C[C@@H]3OC1CC(N)C(O)C(C)O1` (stereo not given in full), the growth result in test [1] (runs of 1995) is “active: -41.4, -75.6, -47.6, -55.2, -66.4, -80.4, -48.8, -14.3, -77.7, -76.9, -39.8, -68.2, -70.3, -78.4, -83.7, -49.7, -81.7, -70.1, -73.7, -83.6, -67.7, -46.8, -38.1, -64.5, -55.7, -16.5, -47.1, -52.9, -55.4, -26.5, -54.4, -86.3, -65.9, -67.4, -51.1, -18.6, -54.9%”; in test [1] (runs of 1996), “active: -82.8 (2×), -47.5, -77.3, -74.6, -73.1, -53.7, -46.8, -32.9, -6.03, -28.5, -31.1, -48.8, -72.1, -40.9, -44.7, -51, -69.6, -75.3, -72.2, -91.7, -64.6, -79, -81.7, -43.2, -45.6, -11.9, -28.6, -55.4, -48.1, -35.7, -82.6, -36.8, -36.2, -22.9, -85.9, -65.8, -73.4, -67.8, -35.1, -85.7, -56.6, -88.4%”; in test [1] (runs of 1997) it was “active: -64.4, -87.7, -23, -31.1, -84.9, -31.7, -76.5, -82, -49.2, -18.8, -18, -58.2, -89.3, -84.3, -91.9, -76.9, -92.1, -34.9, -61.7, -93.7, -48.2, -51.5, -49.4, -62.3, -34.7, -37.5, -17.2, -12.2, -36, -2.41, -44.5, -78, -75.1, -72.6, -13.7, -84.5% and inactive: 31.6%”; in test [1] (runs of 1998), “active: -63.5, -62.2, -39.8, -18.4, -25.7, -45.4, -37, -22.3, -74.4, -85.1, -49.9, -52.9, -55, -57.6, -49.1, -69.7, -74.3, -66, -65.4%”; in test [1] (runs of 1999), “active: -58.3, -65.2, -68.8, -100, -35, -64.1, -53.1, -88.4, -6.39, -33.3, -55.4, -89.1, -83.9, -30, -88.5%”; in test [1] (runs of 2000), “active: -100% (2×), -60.5%, -94.1%”. The growth result in test [2] (runs of 2006) was “inactive: 16.2%, 13.4%”; in test [2] (runs of 2007), “active: 7.64, -11.9, 5.62, 2.45, 6.93, 5.93, 2.6, 8.13, -2.76, -17.6, -8.48, 4.89, -1.36, 7.56 (2×), 0.292, 3.2, -6.16, -4.18, -1.38, -16.8, -2.86, 9.85, -5.01% and inactive: 22, 12.1, 13.3, 10.2, 11.7, 12.2, 12.6 (2×), 12.4, 10.8, 17.2, 54.7, 29.3, 23.2, 10.5, 60.2, 19.8, 12.7, 12.5, 11.6%”; in test [2] (runs of 2008) it was “inactive: 20, 12.6, 11.9 (2×), 19.7 (2×), 61, 18.9, 70.9, 14.8, 22.5, 26.1, 37, 11.8, 13.6, 99.1, 10.7, 16.1 (2×), 13.7 (2×), 14.1, 14.4, 13.3, 38.7, 30.3% and active: 8.84, -0.685, 5.19, 5.66, 9.75, -16.1, -20, 5.68, 1.03, 6.76, 8.53, 9.94, 5.45, 4.56, -0.795, 6.64, -3.65, -6.64, -14, -8.47, -4.89, 8.18, 4.18, 2.91, -4.51, 4.03, 9.35, 0.0237%”; in test [2] (runs of 2009), “inactive: 20.5, 22.6 (2×), 22.2, 15.7, 40.9, 39.8, 56.9, 53.5, 27, 30.9, 32.2, 25.5, 26.4, 32.9, 39.7, 18.1, 26, 24, 25.7, 29.2, 42.5, 26.1, 43.2, 43.8, 27.5 (2×), 24.3, 35.8, 33.9, 25.8, 25.3, 27.4, 35.1, 39.4, 40.4, 33.3, 29.5, 28.9, 14.9, 22, 30.3, 46.5, 33.8, 34.5, 38.4, 37.3, 26.2, 23, 31.3 (2×), 23.6, 20.7% and active: 4.37%, 9.66%”; in test [2] (runs of 2010) it was “inactive: 35.5, 34.6, 24.4 (4×), 22.6, 26, 35.7, 31.5, 42.6, 44, 31.8, 37.6, 37.4, 30.3, 11, 29.7, 17.5, 16.4, 18.5, 21.8, 22.1, 22.9, 30.1, 14.3, 27.5, 33.7, 18 (2×), 19, 21.9, 21.2, 23.2, 26.3, 21.1, 32.9, 27.4, 30.9, 12.2, 23.4% and active: 2.27%”; in test [2] (runs of 2011), “inactive: 35.7, 18.5, 23.1, 35, 45.2, 32.8, 28.8, 15.8, 27.5, 35.2, 32.6, 36.2, 29.7, 31.5 (2×), 43.6, 41.8, 35.5, 29.8, 27.9, 25.1, 32.9 (2×), 26.3, 57.8, 18.9, 31.3, 16, 36.5, 39.5, 19.4, 17.3, 23, 27.1, 15.1, 24.4, 19, 19.2, 14.1, 20.8, 22.2, 31.4, 18.8, 18.6, 14.3, 12.5, 27, 21.4, 22.6, 20%”. For the same compound, the growth entry in test [2] (runs of 2012) is “inactive: 14.3, 24.9, 31.2, 27.5, 23.2, 21.2, 13.5, 19 (3×), 20.3, 20.4 (3×), 11.9 (2×), 28.8, 24.5, 33.1, 33.3, 26.7, 27.9, 44.1, 56.2, 52.8, 52.2, 60.6, 54.2, 49.9, 50.1, 50, 56.4, 66.8, 59.2, 10.6, 10.3, 21.5, 25, 17.2, 20.8, 30.5, 24.3, 23.7, 27.3, 24, 17.8, 29.3, 16.5, 18.3, 20.2, 15.5, 26% and active: 9.46, 4.14, 8.5, 4.54, 9.91, 9.7, 8.05, 9.75, 7.09, 8.66, 9.85%”; in test [2] (runs of 2013), “inactive: 18, 12, 16.2 (2×), 13.5, 23.8, 17.5 (2×), 18.9 (2×), 18.1, 17.4, 17, 19, 19.2 (2×), 24.2, 18.5, 19.8, 21.2 (2×), 20.7, 15.8, 20.1, 15.7, 11.8, 32.7, 20.3, 18.6, 26.7, 32.2, 12.6, 17.7, 17.3 (2×), 17.8, 17.9, 14.1 (2×), 20.4, 15.9, 16.3, 16.5, 17.2, 14, 23.4, 24.7, 24.3, 26.4, 19.4, 27.5, 20.9, 22.6% and active: 8.68, 6.55, 9.72, 6.29, 4.5, 8.03, 9.37, 9.52, 5.15%”; in test [2] (runs of 2014) it was “inactive: 33.5, 35.4, 35.1, 27.5, 23.8 (2×), 34.4, 32.4, 31.3, 26.6, 25.5 (2×), 32.6 (2×), 26, 40.2, 27.3, 44, 37.7, 29.5, 45.1, 37.6, 24.6 (2×), 23.1, 28.8, 31.2, 20, 18.1, 15.3 (3×), 17.8, 13.1, 14, 19, 22.6 (2×), 14.8, 13.8, 16.5, 15.5, 22.3, 20.7, 13.2, 12.9, 14.2, 14.4, 16.1, 25.4, 23.7, 33.7, 26.1, 30.1, 33.3, 26.2, 31.8, 10.6, 11.8, 34.2, 36.1, 26.4, 23.6, 15.8 (2×), 19.4, 18.9, 32.5, 37.1, 28.9, 50.3, 49.5, 42.1, 34.6, 24.5, 39.4%”.
